Measured values from the antibiotic and cytotoxicity screens of Wong et al. (2023).
Some of the results follow.

Each compound was assayed on S. aureus RN4220 (assay: growth inhibition call (relative growth <= 0.2)). Conditions: 50 µM.

Growth inhibition call, inactive:
Cc1ccc(S(=O)(=O)Nc2ccc3c(c2)C(=O)N([C@H](C)CO)C[C@H](C)[C@H](CN(C)C(=O)Nc2ccc(C(F)(F)F)cc2)O3)cc1
COc1ccc(S(=O)(=O)Nc2cccc3c2O[C@H](CN(C)Cc2ccc(Oc4ccccc4)cc2)[C@H](C)CN([C@@H](C)CO)C3=O)cc1
C[C@@H]1CN([C@@H](C)CO)C(=O)c2cc(NC(=O)Nc3cccc4ccccc34)ccc2O[C@@H](C)CCCCO[C@@H]1CN(C)S(=O)(=O)c1ccccc1
C[C@H]1CN([C@@H](C)CO)S(=O)(=O)c2ccc(C#CC(C)(C)O)cc2O[C@H]1CN(C)C(=O)CN(C)C
CN1CC(=O)Nc2ccc([N+](=O)[O-])cc2C1=O
C[C@H]1CN([C@@H](C)CO)C(=O)c2cccc(NS(=O)(=O)c3ccc(F)cc3)c2O[C@H]1CN(C)C(=O)Nc1ccc(C(F)(F)F)cc1
CC(C)NC(=O)N(C)C[C@H]1Oc2ccc(NC(=O)Cn3cnnn3)cc2CC(=O)N([C@H](C)CO)C[C@H]1C
C[C@@H]1CCCCO[C@@H](CN(C)C(=O)NC2CCCCC2)[C@@H](C)CN([C@H](C)CO)C(=O)c2cc(NS(=O)(=O)c3cccs3)ccc2O1
Cc1noc(C)c1S(=O)(=O)N(C)C[C@@H]1OCCCC[C@H](C)Oc2ccc(N(C)C)cc2C(=O)N([C@H](C)CO)C[C@H]1C
COc1ccc(NC(=O)N(C)C[C@H]2Oc3ncc(C#C[C@@H](C)O)cc3C(=O)N([C@@H](C)CO)C[C@@H]2C)cc1
C[C@H](CO)N1C[C@H](C)[C@@H](CN(C)Cc2ccc(-c3ccccc3)cc2)Oc2ccc(NC(=O)CCC(F)(F)F)cc2C1=O
CC(=O)O[C@H]1CC(C)(C)C[C@H]2[C@]13CO[C@@]21CC[C@@H]2[C@@]4(C)CC[C@H](O[C@@H]5O[C@H](C(=O)O)[C@@H](O)[C@H](O[C@@H]6O[C@H](CO)[C@H](O)[C@H](O)[C@H]6O[C@@H]6O[C@@H](C)[C@H](O)[C@@H](O)[C@H]6O)[C@H]5O[C@@H]5O[C@H](CO)[C@@H](O)[C@H](O)[C@H]5O)C(C)(C)[C@@H]4CC[C@@]2(C)[C@]1(C)C[C@H]3O
C[C@H]1CCCCO[C@@H](CN(C)CC2CCCCC2)[C@@H](C)CN([C@@H](C)CO)C(=O)c2cc(NS(=O)(=O)c3ccc(F)cc3)ccc2O1
C[C@@H]1CN([C@@H](C)CO)C(=O)c2cccc(NC(=O)c3nc4ccccc4s3)c2O[C@H]1CN(C)C(=O)Nc1cccc2ccccc12
C[C@H]1CN([C@@H](C)CO)C(=O)Cc2cc(NS(=O)(=O)c3cn(C)cn3)ccc2O[C@@H]1CN(C)C(=O)Nc1ccc(F)cc1
C[C@@H]1CCCCO[C@H](CN(C)Cc2ccc(C(=O)O)cc2)[C@H](C)CN([C@H](C)CO)C(=O)c2cc(NC(=O)c3ccccc3)ccc2O1
COc1ccc(C=CC(=O)c2cc(O)ccc2O)cc1
C[C@H]1CN([C@@H](C)CO)C(=O)CCCn2cc(nn2)CO[C@H]1CN(C)S(=O)(=O)c1ccc(-n2cccn2)cc1
COc1ccc(NC(=O)N(C)C[C@H]2Oc3ccc(NC(=O)Nc4cccc5ccccc45)cc3C(=O)N([C@@H](C)CO)C[C@H]2C)cc1
CCCCC(CC)COC(=O)C(C#N)=C(c1ccccc1)c1ccccc1 (centres undefined)
C[C@@H]1CCCCO[C@@H](CN(C)Cc2ccc(C(F)(F)F)cc2)[C@@H](C)CN([C@H](C)CO)C(=O)c2cc(NC(=O)Nc3ccccc3)ccc2O1
COC[C@@H](C)NC(=O)C1CN(C(C)=O)C1
Cc1c(C)n2c3c(=O)[nH]c(=O)n(C)c3nc2n1C
C[C@@H]1CN([C@@H](C)CO)C(=O)c2cc(NC(=O)Nc3ccc4c(c3)OCO4)ccc2O[C@@H](C)CCCCO[C@H]1CN(C)C(=O)Nc1ccccc1
C[C@H](CO)N1C[C@H](C)[C@@H](CN(C)C(=O)Nc2cccc(F)c2)Oc2ncc(C#CCN(C)C)cc2C1=O
COc1ccc(S(=O)(=O)N(C)C[C@H]2Oc3c(NS(C)(=O)=O)cccc3C(=O)N([C@H](C)CO)C[C@@H]2C)cc1
C[C@H](CO)N1C[C@H](C)[C@H](CN(C)Cc2ccc3c(c2)OCO3)OCCCC[C@H](C)Oc2ccc(NS(=O)(=O)c3cccs3)cc2C1=O
Cc1ccc(S(=O)(=O)N(C)C[C@@H]2OCCCC[C@@H](C)Oc3ccc(NS(=O)(=O)c4ccc(F)cc4)cc3C(=O)N([C@H](C)CO)C[C@@H]2C)cc1
CC(C)NC(=O)N(C)C[C@H]1OCCCC[C@H](C)Oc2ccc(NS(=O)(=O)c3cn(C)cn3)cc2C(=O)N([C@@H](C)CO)C[C@@H]1C
